# In the supplement of paper PMC11417369:
# ± gives the standard deviation of the averaged measurements. Some of the results follow.
# Tested on: PfAP2-EXP AP2 domain (GST-tagged)
# Experiment: gcPBM binding intensity (ln(normalized median fluorescence intensity)); higher = stronger DNA binding
# In short: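 Binding intensity values are the highest Masliner-normalised natural-log median intensity among replicate spots of either probe orientation. The binding step lasted 1 h in 1× PBS with 1% milk, 0.2 mg/ml BSA, 0.5% salmon testes DNA and 0.03% Triton X-100, using GST-tagged P. falciparum DNA-binding domains expressed in E. coli on an Agilent 4 × 180k array of primer-extended double-stranded 36-bp intergenic genomic probes plus negative controls. Alexa488 anti-GST antibody and a 488 nm scan detected bound protein.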
row,Sequence,gcPBM binding intensity (ln)
1,TTAAGTCCGTTAACAGTGCATTTTTTCTTTTATGTA [GTGCAC_site9867],8.79 ± 0.39
2,AGAAAAGAGAAAAGTAGTACAAAGGATCATTTAAAA [XGTACX_site5294],8.72 ± 0.67
3,TAATGAAAAAATAAAAGAATAAATAAATAAATAAAT [TGCATGCA_negctrl_site130],8.77 ± 0.3
4,ATTAAAAAAATATAAACACACAAAAAAAAAATATAC [CACACA_site1100],8.8 ± 0.58
5,AATTTGAAATATGTGGTGCAGTTATATAATATGTTT [GTGCAC_site9885],8.8 ± 0.29
6,ATATTTTCCCTTGTTTTACACACGTGCTGATATGAG [CACACA_site8672],9.37 ± 0.6
7,ATATAGAATAAAACTATACACACCTATATTTAAACA [CACACA_site1902],8.62 ± 0.37
8,TGTAGTCTGGAGAAAAGTACACAGTATCTGGTAACC [XGTACX_site2033],8.46 ± 0.32
9,TATATTAATAAAGGTACTACACGGAAATGGAAATAT [XGTACX_site7760],9.22 ± 0.53
10,CTTGTATAGAAACACACACACACTTTCTTTTTTTAA [CACACA_site1964],8.56 ± 0.4
11,ATATAAAAAAATAATAAATAAATAAAAAGATTTCTT [XGTACX_negctrl_site110],8.2 ± 0.4
12,CACATTAATTTTTGGGTGCACTTGGGAAATTTTGGT,9.27 ± 0.63
13,ATATATATTATATATATATATATATATATATATATA [CACACA_negctrl_site493],9.85 ± 0.33
14,ATAATATGAAAACACACACACACACCCAAAAAAAAA [CACACA_site2011],8.7 ± 0.52
15,AGGATATAATACCATACACACATTTATAAAATAACA [CACACA_site1930],8.62 ± 0.36
16,AACAAATACGAACACACACACACACTAAAAAAAAAA [CACACA_site6386],8.63 ± 0.59
17,TGTAATCAAAAAAATAGTACATAAATTGTGTATACT [XGTACX_site5908],8.59 ± 0.39
18,TAATAAATAAATGACACACACACACGCAAAAAAAAA [CACACA_site7275],8.86 ± 0.61
19,ATACCTACATACATACGTACATATATATATATAATG [XGTACX_site234],9.1 ± 0.47
20,TAGATTTTTATGCGTGCACACATTTAAAAAAAAAAC [CACACA_site3421],8.69 ± 0.35
21,TTTTAATAAATTCAAAACATAAAAAGGAAAAAAAAA [XGTACX_negctrl_site471],8.62 ± 0.73
22,AAATATAATAACATAACACACACATGTATTTATAGG [CACACA_site8009],8.46 ± 0.52
23,TATAATGAGAAGATATAATATATAGGGGGTAATTCT [GTGCAC_negctrl_site228],9.29 ± 0.54

row,Sequence,gcPBM binding intensity (ln)
1,ATATATATATATATATGTACTTATTTGTATAAATAC [XGTACX_site8031],10.1 ± 0.28
2,TTTTTTTCATAAGAAGCACACAAAAAATGATAGAGA [CACACA_site8401],8.91 ± 0.41
3,ATTCTTTATTATTCGCCACACACATATATATATATA [CACACA_site9009],10.2 ± 0.28
4,TATTGGAAAATTAGAAGTACTTTCATATATTAGACT [XGTACX_site4503],8.42 ± 0.3
5,TTTTTATTATTCCATAGTACAGAAAAAATGATATAT [XGTACX_site3431],8.45 ± 0.35
6,ATTAAATATGTCAAGTGTACAAAATGTAAAAAAAAA [XGTACX_site4119],8.76 ± 0.42
7,TTATATATACCTAAGACACACACATATATATATATA [CACACA_site8153],10 ± 0.27
8,TAAATATATATATACACACACACCAAAGCAATAGAT [CACACA_site2940],9.2 ± 0.45
9,GCCATTGTACCATCCACACACATATAAATATGTATA [CACACA_site7303],9.16 ± 0.32
10,TGTTAATAGAAATACGTGCACACTAAAGGGAAAACA [CACACA_site1485],9.23 ± 0.35
11,TATGAAGAAAAGAATTGTACGATGTTTATTTTGTAT [XGTACX_site8614],8.4 ± 0.31
12,TTGTTATCTACCTGTAGTACATATATTATGTAATAT [XGTACX_site735],8.55 ± 0.28
13,ACAGTATCAATATGGATAAAAATGTCCATATGCCTG [TGCATGCA_negctrl_site482],8.2 ± 0.45
14,TATATAACATATAACACACATACTTAGTATTACATA [CACACA_site3099],8.24 ± 0.28
15,TACGAAAAAAAAAAAAAAAAAAAAAAACACAAAAAA [CACACA_negctrl_site1643],8.15 ± 0.61
16,AATACCATAATCAATGCACACATAACAAAATATTAT [CACACA_site8873],8.62 ± 0.33
17,ATATAATGGACCATAGTGCATAAAAATAACAAAAAA [GTGCAC_site9558],9.02 ± 0.16
18,TTTTTATATTTTATAGTGCAAAAACTTACATAAAAT,8.43 ± 0.17
19,TATTTTTTTTCTTTATTTATAACGCTCAATATATTC [GTGCAC_negctrl_site265],8.72 ± 0.47
20,TGGAAATATATATATATATATACATATATATATAGC [XGTACX_negctrl_site107],8.32 ± 0.26
21,CATATAAATATATATACACACACACCGTAATACATA [CACACA_site9158],8.73 ± 0.38
22,ATTTTATAACATTCATGTACACATTTCATTTATTTG [XGTACX_site3028],8.81 ± 0.4
